PubChem BioAssay AID493208 (National Center for Advancing Translational Sciences (NCATS), 2011)
Out of some 44,000 compounds screened, about 340 (0.77%) were called active. Not shown: some 5% with an inconclusive outcome. Calls come from the whole dose curve; as a rule, active = well fitted inhibition curve with a large enough effect; inconclusive = small, poorly fitted or top-dose-only effect; inactive = flat fitted curve, though single readings scatter. Some of the results follow.

Experiment: Acumen qHTS Assay for Inhibitors of the mTORC1 Signaling Pathway in MEF (Tsc2-/-, p53-/-) Cells: Sytravon;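 note: plate controls were DMSO for no effect and rapamycin for full effect; nearly all actives have a fitted effect of over 50% in size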
Details: phospho-rpS6 immunofluorescence/PI, 24 h; series mostly up to 38.3 µM; activity change, negative = inhibition: at the top concentration
Procedure, shortened: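 Plate MEFs (Tsc2-/-, p53-/-, empty vector) in DMEM/10% FBS; after 24 h add compound, incubate 24 h at 37 degree Celsius; fix in PFA/TX-100, block, stain phospho-rpS6 and 10 uM PI; scan at 488 nm; report % positive cells.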

Activity change, negative = inhibition, inactive:
CCOc1ccc(CCNC(c2nnc(-c3ccccc3)o2)c2ccccc2Cl)cc1OCC (configuration not stated) 1.1%, COc1ccc(CCNC(=O)c2cc(-c3ccc(C)c(C)c3)nc3ccccc23)cc1OC -12.2%, CCCn1c2ccc(C)cc2c2nnc(SCCN3CCCCC3)nc21 -26.2%, Cc1ccc(S(=O)(=O)Nc2nc3n(n2)C(c2ccc(Cl)cc2)C=C(c2ccccc2)N3)cc1 (configuration not stated) 1.86%, O=C(CN1C(=O)CC(c2ccco2)Sc2ccccc21)Nc1ccc(OC(F)(F)F)cc1 (configuration not stated) 3.21%, COc1ccc(C(=O)NCC(c2cccs2)S(=O)(=O)c2cccs2)cc1 (configuration not stated) -7.88%, Cc1ccc(NC(=O)[C@H](Cc2ccccc2)N2Cc3ccccc3C2=O)cc1F -0.0506%, CCOc1ccc(C2CC(=O)c3c([nH]c(C(=O)OC4CCCCCC4)c3C)C2)cc1 (configuration not stated) -14.7%, CC1=C(C(=O)OC2CCCCCC2)C(c2c(Cl)cccc2Cl)CC(=O)N1 (configuration not stated) -1.97%, Cc1nn(C)c2c1c(C(F)(F)F)cc(=O)n2C(C)C(=O)NCc1ccccc1 (configuration not stated) -14.7%, CCOCCc1nn2c(=O)cc(COC(=O)c3ccc4c(c3)OCO4)nc2s1 -2.92%, COc1ccc(-c2nc(CS(=O)CC(=O)NCc3ccccc3Cl)c(C)o2)cc1OC (configuration not stated) -12%, Cn1c(C(=O)Nc2cccc(Cl)c2)cc2c(=O)n(C)c3ccccc3c21 -1.96%, O=S(=O)(c1ccc(Br)cc1)N1CCn2cccc2C1c1ccc(Br)cc1 (configuration not stated) -12.2%, Cc1ccc(CNc2nc3nc(C)c(Cl)c(C)n3n2)cc1 -6.38%, Cc1ccc(-c2cn3c(n2)sc2cc(C(=O)NC4CCCCCC4)ccc23)c(C)c1 9.34%, Cc1ccc(Cl)cc1N1CCN(C(=O)C2CCN(S(=O)(=O)c3c(C)noc3/C=C/c3ccccc3F)CC2)CC1 -15.4%, Cc1oc2c(c(C)cc3oc(=O)c(CC(=O)NCCc4ccc(Cl)cc4)c(C)c32)c1C 1.86%, Cc1cccc(NC(c2nnc(-c3ccccc3)o2)c2ccc(F)cc2Cl)c1C (configuration not stated) -0.856%, O=C(NCc1ccccc1)c1ccc2c(c1)sc1nc(-c3ccc(F)cc3)cn12 -3.83%, CC(C)c1nn2c(=O)cc(COC(=O)COc3ccccc3F)nc2s1 -12.9%, CCc1ccccc1NC(=O)CSc1nc2ccccc2nc1Cc1cccc(OC)c1 -16.4%, COc1cccc(-c2cn3c(n2)sc2cc(C(=O)NCCc4ccccc4)ccc23)c1 5.76%, Cc1ccc(C)c(N2CCN(CCCNC(=O)c3ccc4nc(C(C)C)oc4c3)CC2)c1 -6.4%, Cc1cc(-c2ccc(C)c(S(=O)(=O)N(C(C)C)C3CCCCC3)c2)on1 -4.73%, O=C(O)CCSc1nnc(-c2ccc(Cl)cc2Cl)o1 2.16%, CC1(C)O[C@H]2[C@@H](O1)[C@@H](C(=O)Nc1cc(F)ccc1F)O[C@@H]1OC(C)(C)O[C@@H]12 -9.38%, Cc1cccc(-c2cc(C(=O)O)c3c(-c4ccc(F)cc4)[nH]nc3n2)c1 -10.2%, Cc1ccc2nc(N(Cc3cccnc3)C(=O)CCc3ccccc3)sc2c1 -5.43%, COc1ccc(-c2nc3n(n2)C(c2cccc(C)c2)C(C(N)=O)=C(C)N3)cc1OC (configuration not stated) -17.4%, CC(=O)c1ccc(NC(=O)c2nn(C)c3c2CS(=O)(=O)c2ccccc2-3)cc1 3.9%, Cc1cccc(NC(=O)c2ccc(F)c(S(=O)(=O)N3CCN(c4ccc(F)cc4)CC3)c2)c1 13.2%, CCOC(=O)C1=C(CN2CCCCC2)NC(=O)NC1c1ccc(OC)cc1 (configuration not stated) -0.0611%, Cc1ccc(-c2cn3c(n2)sc2cc(C(=O)NC4CCCCC4)ccc23)cc1 -9.74%, CCOc1ccccc1NC(=O)c1cn(C2CCCCC2)c(=O)c2c1c1ccccc1n2C -2.28%, COc1ccc(CCNC(=O)CCn2c(=O)c3cccn3c3ccc(F)cc32)cc1OC -23.2%, NS(=O)(=O)c1ccc(CCNC(=O)CCn2c(=O)c3cccn3c3cccnc32)cc1 -3.24%, Cc1cc(F)ccc1NC(=O)CN1C(=O)CCc2cc(S(=O)(=O)N3CCOCC3)ccc21 2.61%, Cc1ccc(-n2ncc(C(=O)N(C)Cc3ccccc3)c2-n2cccc2)cc1 0.942%, Cc1cc(Br)ccc1NC(=O)C(NS(=O)(=O)c1cccs1)c1ccccc1 (configuration not stated) -3.93%, COc1ccc(Cl)cc1NC(=O)c1cc2nc(-c3ccc(C)cc3)cc(C(F)(F)F)n2n1 -16.5%, CC(CNC(=O)c1cc2ccccn2n1)c1ccccc1 (configuration not stated) 7.26%, CSc1nc(C)cc(Nc2cccc(C(=O)O)c2)n1 -0.775%, CCOC(=O)C(C)Nc1ncnc2onc(C)c12 (configuration not stated) -7.31%, COc1cc(NC(=O)CCCN2C(=O)CCn3nc(-c4cn(C)c5ccccc45)cc32)cc(OC)c1 0.666%, O=C(c1cnc(N2CCCCC2)c2ccccc12)N1CCN(c2ccc(F)cc2)CC1 0.4%, Fc1ccc(Nc2nc(-c3ccc(F)cc3)c3c(n2)-c2ccccc2OC3)cc1 -0.221%, Cc1c(NC(=O)c2ccc(-c3ccc(F)cc3)o2)cccc1-c1nc2ncccc2o1 -7.46%, COc1cccc(C(=O)Nc2ccc3nc(SCC(=O)N4CCc5ccccc54)sc3c2)c1 1.41%, Cc1sc2c(c1C)c(=O)n(-c1ccc(Cl)cc1)c(=O)n2CC(=O)c1ccccc1 7.16%, COc1cccc(CNC(=O)c2ccc3c(c2)sc2nc(-c4ccccc4)cn23)c1OC 6.51%, O=c1[nH]c2ccc(S(=O)(=O)Nc3cc(Cl)ccc3O)cc2o1 2.66%, CCOc1ccccc1CNC(=O)c1cc2oc3ccccc3c2n1CC -0.647%, Cc1ccc(-c2nc3scc(CCNS(=O)(=O)c4c(C)noc4C)n3n2)cc1 -0.525%, Cc1cc(C)cc(NC(=O)c2cc3c(=O)n(Cc4ccco4)ccc3nc2C)c1 -5.25%, Cc1nc2c(-c3ccc(F)cc3)c(C)nn2c(C)c1CCC(=O)NCc1cccc(Cl)c1 -6.86%, CCC(=O)N1CCc2cc(Br)cc(S(=O)(=O)N3CCN(c4cccc(Cl)c4)CC3)c21 2.26%, O=C(OCC1CCCO1)c1ccc2c(c1)N(Cc1cccc(F)c1)C(=O)c1ccccc1S2(=O)=O (configuration not stated) 3.15%, CC1CCc2nc(NC(=O)Cc3ccc(Cl)cc3)sc2C1 (configuration not stated) -3.31%, CCOc1cccc(C2c3[nH]c4ccccc4c3CCN2C(=O)Cc2cccc(OCC)c2OCC)c1 (configuration not stated) -1.91%, Cc1cc2c(cc1S(=O)(=O)CCC(=O)N(C)Cc1ccccc1)OCC(=O)N2 5.99%, COc1ccc2c(CNCCc3ccccc3OC)c(C(=O)O)n(Cc3ccc(F)cc3Cl)c2c1 -20.1%, CSc1cccc(NC(=O)N2CCN(S(=O)(=O)c3ccc4c(ccn4C)c3)CC2)c1 -1%, CC1=C(C(=O)OC2CCCC2)C(c2ccc(Cl)cc2)CC(=O)N1 (configuration not stated) -2.84%, O=C(CSc1nc(-c2ccccc2)no1)N1CCN(c2ccc(F)cc2)CC1 8.98%, COc1ccc(C2=NS(=O)(=O)N(C)C(C(=O)NC(C)c3ccccc3)=C2)cc1OC (configuration not stated) 1.15%, Cc1cc(C)cc(NC(=O)CN(c2cccc(C)c2C)S(=O)(=O)c2ccccc2)c1 -12.8%, COc1cccc(N2C(=O)CSC23C(=O)N(Cc2ccccc2F)c2ccccc23)c1 (configuration not stated) -10.5%, Cc1cccc(NC(=O)C2CCN(S(=O)(=O)c3c(C)noc3/C=C/c3ccco3)CC2)c1C 6.67%, COc1ccc(-c2nc(SCCOc3cc(C)ccc3C(C)C)n3[nH]c(=O)cc3n2)cc1 -1.87%, CCOc1cc(Cl)c(S(=O)(=O)n2cc(C)nc2CC)cc1Cl -1.82%, CN(C)c1ccc(CNS(=O)(=O)c2csc(C(N)=O)c2)cc1 -26.9%, COc1cccc(NC(=O)Nc2cc(-c3cn4cccnc4n3)ccc2OC)c1 -4.57%, CCn1cc2nc(SCc3ccccc3)n(Cc3ccc(C)cc3)c(=O)c2n1 6.34%, O=C(NCC(c1ccco1)S(=O)(=O)c1cccs1)c1ccc(C(F)(F)F)cc1 (configuration not stated) -0.629%, Cc1ccccc1NC(=O)CSc1nc2ccc(NC(=O)c3ccco3)cc2s1 -6.67%, COc1ccc(C)cc1NC(=O)c1cc(S(=O)(=O)NCCC2=CCCCC2)ccc1F -9.85%, Clc1ccc(-c2noc3ncnc(N4CCCCC4)c23)cc1 -24.3%, COc1ccc(-c2noc(CSc3nnc(C)n3-c3ccc(C)cc3)n2)cc1 -14.8%, COc1ccc(N2CC(C(=O)Nc3ccccc3-c3nc(-c4ccc(C)cc4)no3)CC2=O)cc1 (configuration not stated) -9.69%, COc1ccc(C(=O)NCCc2nc3ccccc3[nH]2)cc1 -1.25%, CCOc1ccc(C(CC(=O)Nc2ccc(C(=O)OC)cc2)N2Cc3ccccc3C2=O)cc1OC (configuration not stated) 0.612%, CC(C)(C)c1ccc(OCc2cc(=O)n3c4c(sc3n2)CCCC4)cc1 -4.72%, Cc1ccccc1CSCc1ccc(C(=O)NCCc2ccccc2)o1 2.26%, O=C(COc1ccc(F)cc1)OCc1cc(=O)n2nc(C3CC3)sc2n1 0%, Cc1ccc(CCNC(=O)C2CCCN(S(=O)(=O)c3ccc4c(c3)oc(=O)n4C)C2)cc1 (configuration not stated) 4.98%, CCc1ccc(-n2nc(C)c3c(C)cc(=O)n(CC(=O)N(CC)Cc4ccccc4)c32)cc1 3.08%, CCc1ccc(C(=O)c2cn(Cc3ccccc3)c3cc(OC)c(OC)cc3c2=O)cc1 -11.4%, Oc1c(C(c2ccc(Cl)cc2Cl)N2CCCC2)sc2nc(-c3ccco3)nn12 (configuration not stated) -10.2%, CCOc1ccc(CCNC(=O)CCSCc2cccc(Cl)c2)cc1OCC 8.22%, CCc1ccccc1NC(=O)COC(=O)c1cn(CC)c2nc(C)ccc2c1=O -1.89%, CCCCOC(=O)c1ccc(Nc2nc3ccc(C)cc3n3cnnc23)cc1 -2.04%, CN(C)c1ccc(NC(=O)C2(c3cccs3)CCOCC2)cc1 -5.38%, O=C(Nc1cc(Cl)ccc1O)c1cc2nc(-c3ccc4c(c3)OCO4)cc(C(F)(F)F)n2n1 -13.5%, O=C(CSCc1ccc(F)cc1)N1CCc2c([nH]c3ccccc23)C1c1ccccc1 (configuration not stated) -0.795%, CCCOc1ccc(Cn2c(=O)sc3ccccc32)cc1 -12.7%, O=C(CC(=O)Nc1ccccc1F)Nc1ccc2nc3n(c(=O)c2c1)CCCCC3 0.473%
